Columns and labels:
[1] = target: T1, Peptide 10: EDPIYVTLEGGKKK (version of peptide 2 used for the kinetic experiments)
T1 chain: EDPIYVTLEGGKKK

[2] = target: T2, Peptide 11: DEAIYATVAGGKKK (version of peptide 5 used for the kinetic experiments)
T2 chain: DEAIYATVAGGKKK

B1: Human ABL (purchased from Life Technologies) (protein)
chain: MLEICLKLVGCKSKKGLSSSSSCYLEEALQRPVASDFEPQGLSEAARWNSKENLLAGPSE[letters of about 60 residues not shown]LEKHSWYHGPVSRNAAEYLLSSGINGSFLVRESESSPGQRSISLRYEGRVYHYRINTASDGKLYVSSESRFNTLAELVHHHSTVADGLITTLHYPAPKRNKPTVYGVSPNYDKWEMERTDITMKHKLGGGQYGEVYEGVWKKYSLTVAVKTLKEDTMEVEEFLKEAAVMKEIKHPNLVQLLGVCTREPPFYIITEFMTYGNLLDYLRECNRQEVNAVVLLYMATQISSAMEYLEKKNFIHRDLAARNCLVGENHLVKVADFGLSRLMTGDTYTAHAGAKFPIKWTAPESLAYNKFSIKSDVWAFGVLLWEIATYGMSPYPGIDLSQVYELLEKDYRMERPEGCPEKVYELMRACWQWNPSDRPSFAEIHQAFETMFQESSISDEVEKELGKQGVRGAVSTLLQAPELPTKTRTSRRAAEHRDTTDVPEMPHSKGQGESDPLDHEPAVSPLLPRKERGPPEGGLNEDERLLPKDKKTNLFSALIKKKKKTAPTPPKRSSSFREMDGQPERRGAGEEEGRDISNGALAFTPLDTADPAKSPKPSNGAGVPNGALRESGGSGFRSPHLWKKSSTLTSSRLATGEEEGGGSSSKRFLRSCSASCVPHGAKDTEWRSVTLPRDLQSTGRQFDSSTFGGHKSEKPALPRKRAGENRSDQVTRGTVTPPPRLVKKNEEAADEVFKDIMESSPGSSPPNLTPKPLRRQVTVAPASGLPHKEEAGKGSALGTPAAAEPVTPTSKAGSGAPGGTSKGPAEESRVRRHKHSSESPGRDKGKLSRLKPAPPPPPAASAGKAGGKPSQSPSQEAAGEAVLGAKTKATSLVDAVNSDAAKPSQPGEGLKKPVLPATPKPQSAKPSGTPISPAPVPSTLPSASSALAGDQPSSTAFIPLISTRVSLRKTRQPPERIASGAITKGVVLDSTEALCLAISRNSEQMASHSAVLEAGKNLYTFCVSYVDSIQQMRNKFAFREAINKLENNLRELQICPATAGSGPAATQDFSKLLSSVKEISDIVQR
2/5 kcat/Km ratio (peptide 2 against peptide 5) [1]: 0.13
Km [1]: > 200 µM
kcat [1]: > 4 s⁻¹
kcat/Km [1]: 20100 M⁻¹ s⁻¹
Km [2]: 101 µM
kcat [2]: 16.5 s⁻¹
kcat/Km [2]: 160000 M⁻¹ s⁻¹

From US20190302117
